# According to publication PMC6919601, “Identification of Plasmodium dipeptidyl aminopeptidase allosteric inhibitors by high throughput screening” (PLoS ONE, 2019):
# Among all 110,000 compounds or so, about 230 (0.21%) showed an effect of 50% or more. Some of the results follow.
# Biological target: DPAP1 (Plasmodium falciparum, UniProt Q8IIJ9)
# Assay: primary screen, percent inhibition; read by cleavage of a fluorogenic dipeptide substrate; higher = more effect of the substance
# Set-up: species or system P. falciparum D10 trophozoite lysates; single well
# 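Note: 30 min substrate incubation versus DMSO and 10 µM JCP410 controls.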
# Chain of DPAP1 (Q8IIJ9 whole entry, looked up): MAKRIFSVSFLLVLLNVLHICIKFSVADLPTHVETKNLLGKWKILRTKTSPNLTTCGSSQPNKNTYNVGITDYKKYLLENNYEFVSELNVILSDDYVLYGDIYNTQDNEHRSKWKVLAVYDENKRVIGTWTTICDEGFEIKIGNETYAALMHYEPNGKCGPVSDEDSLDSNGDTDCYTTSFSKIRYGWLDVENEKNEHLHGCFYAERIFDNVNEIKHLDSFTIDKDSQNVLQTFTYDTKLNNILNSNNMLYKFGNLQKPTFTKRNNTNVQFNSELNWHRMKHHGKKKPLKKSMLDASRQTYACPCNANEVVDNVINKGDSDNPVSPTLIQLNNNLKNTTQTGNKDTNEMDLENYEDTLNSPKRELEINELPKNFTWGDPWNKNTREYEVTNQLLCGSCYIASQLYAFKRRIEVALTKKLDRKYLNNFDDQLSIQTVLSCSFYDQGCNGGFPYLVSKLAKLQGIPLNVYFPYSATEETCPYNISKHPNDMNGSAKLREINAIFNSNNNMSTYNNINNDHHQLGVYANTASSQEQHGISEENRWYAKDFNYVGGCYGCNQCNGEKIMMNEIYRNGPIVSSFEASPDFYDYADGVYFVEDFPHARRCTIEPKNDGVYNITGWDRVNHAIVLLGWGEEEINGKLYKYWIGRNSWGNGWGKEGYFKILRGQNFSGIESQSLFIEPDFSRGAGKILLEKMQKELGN
row,SMILES,% Inhibition @ 10 uM [%]
1,CCCCN(C)C(=O)Cn1ncc2c(C)n(Cc3ccc(C)cc3)c(C)c2c1=O,-2.17
2,COc1ccc(C2=N/C(=C\c3ccccc3OC)C(=O)O2)c(Cl)c1,-3.81
3,COc1cc(OC)c(CN2CCCCC2CO)cc1Br (stereo not shown),3.95
4,CCNC(=O)/C(=C\C=C\c1ccccc1)NC(=O)c1ccc(Br)o1,-2.68
5,CCC(C(=O)N1CCC2(CC1)OCCO2)n1nc(C)c2c(C)n(-c3ccc(C)cc3)nc2c1=O (stereo not shown),-6.93
6,CC1CCc2nn(CC(=O)NCCN3CCOCC3)cc2C1 (stereo not shown),-5.19
7,COc1cccc(C(=O)C2=C(O)C(=O)N(c3cc(C)on3)C2c2ccc(C(C)(C)C)cc2)c1 (stereo not shown),7.97
8,CC[n+]1cn(CC(O)COCc2ccccc2)c2ccccc21 (stereo not shown),-1.6
9,COc1ccc2nc(NC3=NC(=O)CC(C(=O)Nc4ccc(C)cc4)N3)nc(C)c2c1 (stereo not shown),2.64
10,O=C(CC(c1ccccc1)c1cc(Br)ccc1O)NCc1ccco1 (stereo not shown),0.993
11,Cc1nn(C)cc1CNC(=O)c1cnn2c(C(F)F)cc(-c3ccccc3)nc12,-0.958
12,Cc1ccc(C/N=c2/c(-c3ccccc3)c(O)c2=O)cc1,3.31
13,COc1ccc(-c2cc(C(F)(F)F)nc(SCC(=O)NCc3cnn(C)c3C)n2)cc1OC,16.6
14,Cc1ccc2c(n1)sc1c(=O)oc(C)nc12,-1.85
15,CC(=O)N1N=C(c2ccccc2)CC1c1ccc(Br)cc1 (stereo not shown),0.512
16,O=C(C1CCC(CNS(=O)(=O)c2ccccc2)CC1)N1CCc2ccccc2C1 (stereo not shown),-4.53
17,COc1ccc(CN(C)S(=O)(=O)c2nnc(NC(=O)c3ccc(C)cc3)s2)cc1OC,-2.14
18,CC(=O)Nc1ccc(OCc2c(C)c(C)c(Br)c(C)c2C)cc1,3.53
19,Cc1nc(N2CCOCC2)c2c3c(sc2n1)CCCC3,3.82
20,CCOC(=O)C1CCN(Cc2ccoc2)CC1,-4.61
21,CCCOCCOC(=O)C1=C(C)NC(=O)CC1c1ccccc1F (stereo not shown),0.8
22,Cc1c(C(=O)N(C)Cc2ccccc2)cccc1[N+](=O)[O-],-1.62

row,SMILES,% Inhibition @ 10 uM [%]
1,O=C1C2C3C=CC(C3)C2C(=O)N1c1nc[nH]n1 (stereo not shown),1.02
2,Cc1cccc(NC(=O)/C=C/c2ccccc2Cl)c1C,-3.94
3,COC(=O)CC(NC(=O)c1ccccc1)c1ccccc1 (stereo not shown),-7.55
4,COCCN1C(=O)c2oc3ccc(F)cc3c(=O)c2C1c1ccc(O)c(OC)c1 (stereo not shown),0.414
5,CCCCC1CCC(C2CCC(C(=O)O)CC2)CC1 (stereo not shown),4.6
6,CCOc1ccc(C2C(C#N)=C(N)Oc3[nH]nc(C)c32)c(OCC)c1 (stereo not shown),1.57
7,CCN1C=C(Cc2ccc(OC)cc2)C2=C(C1)C(c1ccc(OC)cc1)C(C#N)=C(N)O2 (stereo not shown),-6.35
8,Cc1c(C#N)c(=O)ncn1-c1ccc(Br)cc1,6.08
9,N#CC1=C(N)Oc2c(oc(CO)cc2=O)C1c1ccc(Cl)cc1 (stereo not shown),0.628
10,C/C(=C\c1ccccc1)CN1CCN(c2ccc([N+](=O)[O-])cc2)CC1,-5.42
11,COc1ccc(-c2cs/c(=N\c3cccc(C)c3)n2CCO)cc1,-7.23
12,O=C(NCc1ccc(Cl)cc1)C1CCCN(S(=O)(=O)N2CCCCCC2)C1 (stereo not shown),-3.5
13,O=C(CSc1nc2ncccc2o1)NCC1CCCO1 (stereo not shown),1.3
14,Cc1cc(C)c(C#N)c(SCC(=O)n2nc(C)cc2C)n1,6.42
15,CCCCNS(=O)(=O)c1ccc2c(c1)C(=O)c1ccccc1C2=O,2.24
16,O=C(Nc1nc2ccccc2s1)c1c(F)cccc1Cl,2.44
17,CCN(CC)C(=O)/C(=C/c1ccccc1Cl)NC(=O)c1ccc(C)cc1,2.58
18,Nc1cc(/C=C/C(=O)O)ccc1C(=O)O,31.7
19,CN(C)c1ccc(Nc2nc(-c3ccc(Br)cc3)cs2)cc1,-7.8
20,COc1ccc(CNC(=O)c2cnn3c2NC(c2ccc(OC)c(OC)c2)CC3C(F)(F)F)cc1 (stereo not shown),-1.88
21,CN(Cc1ccccc1)c1oc(/C=C/c2ccc(F)cc2)nc1C#N,2.54
22,CCOC(=O)c1[nH]c(C)c(C(=O)c2cc(F)ccc2F)c1C,-0.268

row,SMILES,% Inhibition @ 10 uM [%]
1,CC(C)Oc1ccc(CNC(=O)C2CCCN(S(=O)(=O)N(C)C3CCCCC3)C2)cc1 (stereo not shown),-4.41
2,CN1CCN(c2ncccc2S(=O)(=O)N2CCCCC2)CC1,-7.62
3,CCSc1nnc(NC(=O)C2CCCN2S(=O)(=O)c2cccc3nsnc23)s1 (stereo not shown),-0.465
4,COc1ccc(NC(=O)c2cc(F)c(Cl)nc2Cl)cc1,3.53
5,CCN(C(=O)c1cc(OC)cc(OC)c1)c1nc(-c2ccc(Br)cc2)cs1,7.31
6,O=C1NC(=O)C(=Cc2ccccc2[N+](=O)[O-])C(=O)N1,3.06
7,CCOc1ccc(-c2cc(-c3nc4c5c(C)c(C)oc5ncn4n3)[nH]n2)cc1,-1.34
8,O=C1NC(=O)/C(=C\c2cc(Cl)c(OCc3ccc(F)cc3)c(Cl)c2)N1,5.37
9,Cc1cccc(NC(=O)c2ccc(COc3ccc(F)cc3)o2)c1,-7.98
10,O=C(CNC1CCCCC1)N1c2ccccc2C=Cc2ccccc21,4.52
11,Cc1ccc2oc(=O)c3cnn(CC(=O)Nc4ccc(Cl)cn4)c3c2c1,-1.7
12,Fc1ccc(CN2CCc3c([nH]c4ccccc34)C2)c(F)c1,4.57
13,CSCCC1C(C#N)=C(N)Oc2[nH]nc(-c3ccccc3Cl)c21 (stereo not shown),4.09
14,Cc1ccccc1OCC(=O)N1CCOCC1,-3.23
15,O=S(=O)(Nc1ccccc1Br)c1ccc(Cl)cc1,-2
16,C=C(C)C[C@H](NC(=O)OCc1ccccc1)C(=O)NCC#N,-3.49
17,CC1CCCCN1CCNC(=O)c1ccc(CS(=O)(=O)Cc2ccc(Cl)cc2)o1 (stereo not shown),-6.88
18,CC(C)CCN1C(=O)c2ccc(C(=O)O)cc2C1=O,-0.0626
19,Cc1ccc(NC(=O)c2cccc(S(=O)(=O)N3CCOCC3)c2)cc1,6
20,Cc1ccc2c(cnn2C(=O)CCC(=O)NCCc2ccccc2)c1,-2.88
